Results taken from paper PMC5928365.
Results are given in words; binding and its absence hold for the method and conditions named. For part of these data: Binding seen in cells or lysates may run through a third protein. Some binding calls cover weakened binding; strength is not graded here. For part of these data: Sequences can lack the tags named with a protein. One block for each molecule: values may come before it.

Tests used:
[1] = molecular target: T1, p120-catenin phosphorylated by CK1 (UniProt P30999); test: pull-down; recombinant GST–p120-catenin (wild-type, deletion fragments, or phosphorylated by Src or CK1) as bait with HEK293T cell extracts (NP-40 0.5% lysis buffer), 4 °C 2 h, glutathione-Sepharose, Western blot; only the target purified
T1 sequence (chain, phosphorylated in vitro by CK1 (sites not printed)): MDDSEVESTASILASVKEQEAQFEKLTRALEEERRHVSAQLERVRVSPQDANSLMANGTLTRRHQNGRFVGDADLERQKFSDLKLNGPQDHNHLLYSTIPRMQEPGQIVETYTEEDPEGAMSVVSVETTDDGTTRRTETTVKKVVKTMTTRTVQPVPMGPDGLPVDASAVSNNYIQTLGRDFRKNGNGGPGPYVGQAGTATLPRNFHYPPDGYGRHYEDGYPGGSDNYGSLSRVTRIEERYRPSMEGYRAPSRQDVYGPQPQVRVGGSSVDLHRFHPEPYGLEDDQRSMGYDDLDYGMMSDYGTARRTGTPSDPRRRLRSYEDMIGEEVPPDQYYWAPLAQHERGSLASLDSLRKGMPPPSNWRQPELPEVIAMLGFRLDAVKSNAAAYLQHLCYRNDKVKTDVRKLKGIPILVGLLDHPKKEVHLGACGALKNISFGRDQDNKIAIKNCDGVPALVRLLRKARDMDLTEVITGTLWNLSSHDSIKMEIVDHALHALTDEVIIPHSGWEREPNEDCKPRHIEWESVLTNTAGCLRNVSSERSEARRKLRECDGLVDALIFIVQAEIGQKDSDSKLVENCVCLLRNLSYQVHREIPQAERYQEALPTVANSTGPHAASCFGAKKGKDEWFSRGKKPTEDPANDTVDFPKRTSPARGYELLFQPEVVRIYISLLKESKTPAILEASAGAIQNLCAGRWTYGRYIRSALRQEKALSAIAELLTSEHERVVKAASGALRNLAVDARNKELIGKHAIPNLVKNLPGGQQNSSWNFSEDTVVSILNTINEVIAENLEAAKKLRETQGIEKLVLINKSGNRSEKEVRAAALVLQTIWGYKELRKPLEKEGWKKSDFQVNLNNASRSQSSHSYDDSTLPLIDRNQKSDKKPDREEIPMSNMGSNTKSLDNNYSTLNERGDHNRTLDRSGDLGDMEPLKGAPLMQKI

[2] = molecular target: T2, GST–p120-catenin lacking the first 102 amino acids (UniProt P30999); test: as above
T2 sequence: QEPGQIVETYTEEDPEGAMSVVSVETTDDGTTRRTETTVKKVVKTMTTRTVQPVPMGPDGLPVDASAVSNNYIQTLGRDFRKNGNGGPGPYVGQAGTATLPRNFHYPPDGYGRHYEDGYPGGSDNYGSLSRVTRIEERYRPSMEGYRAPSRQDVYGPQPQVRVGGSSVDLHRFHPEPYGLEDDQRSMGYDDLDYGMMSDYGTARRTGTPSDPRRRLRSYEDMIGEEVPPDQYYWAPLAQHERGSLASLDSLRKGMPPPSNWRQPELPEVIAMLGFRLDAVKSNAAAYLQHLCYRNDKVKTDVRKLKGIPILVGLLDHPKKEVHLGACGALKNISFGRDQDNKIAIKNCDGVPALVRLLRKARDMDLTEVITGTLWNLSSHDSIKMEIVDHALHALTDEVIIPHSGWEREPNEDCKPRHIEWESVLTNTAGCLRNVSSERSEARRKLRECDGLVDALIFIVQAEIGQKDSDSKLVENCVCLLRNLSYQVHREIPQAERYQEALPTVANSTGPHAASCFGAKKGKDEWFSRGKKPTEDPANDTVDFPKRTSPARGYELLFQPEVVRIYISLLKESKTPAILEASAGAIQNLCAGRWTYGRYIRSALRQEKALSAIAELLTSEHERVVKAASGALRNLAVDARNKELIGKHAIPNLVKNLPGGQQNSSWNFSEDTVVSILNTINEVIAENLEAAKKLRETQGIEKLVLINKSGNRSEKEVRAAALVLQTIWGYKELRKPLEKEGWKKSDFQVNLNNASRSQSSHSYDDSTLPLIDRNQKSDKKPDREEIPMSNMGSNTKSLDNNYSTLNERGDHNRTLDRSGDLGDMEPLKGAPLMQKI

[3] = molecular target: T3, GST–p120-catenin lacking the entire regulatory domain (aa 1–350) (UniProt P30999); test: as above
T3 sequence: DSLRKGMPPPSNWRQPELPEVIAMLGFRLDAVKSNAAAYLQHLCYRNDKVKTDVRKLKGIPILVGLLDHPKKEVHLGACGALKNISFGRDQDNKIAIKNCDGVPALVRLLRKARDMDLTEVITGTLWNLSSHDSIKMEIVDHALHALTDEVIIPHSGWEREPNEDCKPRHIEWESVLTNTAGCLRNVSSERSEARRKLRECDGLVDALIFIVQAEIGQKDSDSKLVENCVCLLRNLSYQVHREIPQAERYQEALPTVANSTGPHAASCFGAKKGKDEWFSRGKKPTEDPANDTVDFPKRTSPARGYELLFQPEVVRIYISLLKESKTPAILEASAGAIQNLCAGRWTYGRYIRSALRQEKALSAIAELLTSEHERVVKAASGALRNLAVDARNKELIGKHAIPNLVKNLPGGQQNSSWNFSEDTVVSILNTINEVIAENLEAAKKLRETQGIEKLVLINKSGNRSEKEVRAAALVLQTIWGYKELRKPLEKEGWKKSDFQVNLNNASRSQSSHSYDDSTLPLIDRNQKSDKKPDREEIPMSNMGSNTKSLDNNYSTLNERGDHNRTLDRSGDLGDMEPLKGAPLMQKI

[4] = molecular target: T4, GST–p120-catenin wild-type (UniProt P30999); test: as above
T4 sequence: T1 sequence (chain, phosphorylated in vitro by CK1 (sites not printed))

[5] = molecular target: T5, p120-catenin phosphorylated by Src (UniProt P30999); test: as above
T5 sequence (chain, phosphorylated in vitro by Src (sites not printed)): T1 sequence (chain, phosphorylated in vitro by CK1 (sites not printed))

[6] = molecular target: T6, GST–cytoRor2 (cytoplasmic domain of Ror2, amino acids 426–944) (mouse (from the plasmid name pcDNA-mRor2-HA)) (UniProt Q9Z138); test: pull-down; GST–cytoRor2 or its fragments as bait with recombinant p120-catenin, 4 °C 2 h, glutathione-Sepharose, Western blot; both purified
T6 sequence: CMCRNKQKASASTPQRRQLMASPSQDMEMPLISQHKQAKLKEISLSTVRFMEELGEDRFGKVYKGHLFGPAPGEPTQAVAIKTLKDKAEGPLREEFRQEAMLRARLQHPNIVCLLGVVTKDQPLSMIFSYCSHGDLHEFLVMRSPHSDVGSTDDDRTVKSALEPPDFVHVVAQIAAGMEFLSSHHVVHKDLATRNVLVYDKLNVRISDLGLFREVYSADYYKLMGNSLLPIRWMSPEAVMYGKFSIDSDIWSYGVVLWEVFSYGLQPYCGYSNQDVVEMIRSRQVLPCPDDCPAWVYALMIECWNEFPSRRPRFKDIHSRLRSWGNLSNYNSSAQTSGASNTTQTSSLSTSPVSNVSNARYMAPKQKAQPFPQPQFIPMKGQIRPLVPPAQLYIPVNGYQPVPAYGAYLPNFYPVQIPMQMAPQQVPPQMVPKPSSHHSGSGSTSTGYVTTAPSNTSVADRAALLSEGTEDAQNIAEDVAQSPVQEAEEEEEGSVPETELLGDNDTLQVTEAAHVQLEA

[7] = molecular target: T7, GST–cytoRor2 phosphorylated by Src (mouse (from the plasmid name pcDNA-mRor2-HA)) (UniProt Q9Z138); test: as above
T7 sequence (chain, phosphorylated in vitro by Src (sites not printed)): T6 sequence

[8] = molecular target: T8, GST–cytoRor2 (aa 426–563) (mouse (from the plasmid name pcDNA-mRor2-HA)) (UniProt Q9Z138); test: as above
T8 sequence: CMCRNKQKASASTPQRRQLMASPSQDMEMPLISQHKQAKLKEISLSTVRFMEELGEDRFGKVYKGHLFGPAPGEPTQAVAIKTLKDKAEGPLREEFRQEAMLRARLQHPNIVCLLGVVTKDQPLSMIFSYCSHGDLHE

[9] = molecular target: T9, GST–cytoRor2 (aa 563–944) (mouse (from the plasmid name pcDNA-mRor2-HA)) (UniProt Q9Z138); test: as above
T9 sequence: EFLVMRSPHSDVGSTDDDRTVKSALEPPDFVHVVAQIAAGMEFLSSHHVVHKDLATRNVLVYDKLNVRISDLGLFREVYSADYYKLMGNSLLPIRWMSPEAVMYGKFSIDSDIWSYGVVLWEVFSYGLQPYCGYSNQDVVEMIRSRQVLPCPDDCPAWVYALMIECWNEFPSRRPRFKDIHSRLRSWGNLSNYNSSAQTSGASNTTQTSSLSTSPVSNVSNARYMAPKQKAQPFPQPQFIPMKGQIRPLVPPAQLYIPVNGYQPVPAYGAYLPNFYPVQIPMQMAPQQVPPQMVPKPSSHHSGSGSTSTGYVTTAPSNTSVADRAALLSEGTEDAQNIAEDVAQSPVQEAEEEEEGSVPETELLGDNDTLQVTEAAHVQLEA

binding [1]: binds | binding [2]: binds | binding [3]: no binding | binding [4]: binds | binding [5]: binds
Molecule: Ror2 (from UniProt Q01974 34-943) (receptor)

binding [6]: binds | binding [7]: binds | binding [8]: binds | binding [9]: no binding
B1: recombinant p120-catenin (protein, UniProt P30999 1-938)
chain: T1 sequence (chain, phosphorylated in vitro by CK1 (sites not printed))
